Reference: the supplement of paper PMC3334620
In all, about 33,000 sequences were measured (“E-score (-0.5 to 0.5)”: median about -0.011, highest 2% from about 0.28 on). The list shows a part of the results.

Target: T1, Gcr1 (UniProt P07261)
T1 sequence: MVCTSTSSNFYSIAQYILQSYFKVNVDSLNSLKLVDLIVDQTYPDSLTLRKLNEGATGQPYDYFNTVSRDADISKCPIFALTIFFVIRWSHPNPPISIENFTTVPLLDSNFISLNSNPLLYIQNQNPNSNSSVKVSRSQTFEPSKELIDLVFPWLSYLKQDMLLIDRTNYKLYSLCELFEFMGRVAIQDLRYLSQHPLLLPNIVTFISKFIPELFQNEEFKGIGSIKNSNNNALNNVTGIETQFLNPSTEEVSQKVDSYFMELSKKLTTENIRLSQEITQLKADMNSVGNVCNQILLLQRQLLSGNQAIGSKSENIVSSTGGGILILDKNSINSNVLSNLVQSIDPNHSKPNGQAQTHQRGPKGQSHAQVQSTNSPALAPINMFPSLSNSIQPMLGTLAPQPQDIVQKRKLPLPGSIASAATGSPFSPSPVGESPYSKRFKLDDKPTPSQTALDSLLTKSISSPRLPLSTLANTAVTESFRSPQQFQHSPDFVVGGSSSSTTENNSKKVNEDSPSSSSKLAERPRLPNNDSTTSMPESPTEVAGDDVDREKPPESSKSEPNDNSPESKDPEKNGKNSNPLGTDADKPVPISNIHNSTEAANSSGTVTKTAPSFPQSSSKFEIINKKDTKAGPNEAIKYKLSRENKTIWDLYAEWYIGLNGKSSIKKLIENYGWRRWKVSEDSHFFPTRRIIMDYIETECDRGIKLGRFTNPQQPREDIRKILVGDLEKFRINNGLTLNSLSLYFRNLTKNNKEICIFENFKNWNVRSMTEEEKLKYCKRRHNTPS
Assay: PBM E-score (8-mer binding enrichment) (E-score (-0.5 to 0.5)); higher = stronger / more preferred TF binding; most listed sequences are background and not binding sites
Settings: protein concentration: 100 nM; construct: GST-full length
Procedure, shortened: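 For each ungapped eight-base word taken together with its reverse complement, the Universal PBM Analysis Suite assigned an E-score. Binding data came from GST-tagged yeast transcription factors, applied at about 100-200 nM, on universal all-10-mer Agilent arrays made double-stranded by primer extension. Fluorescent anti-GST marked bound protein, and scans were normalised with masliner.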

| Sequence | PBM E-score |
| --- | --- |
| ATTCCCTG | -0.0502 |
| AGGGAGGA | -0.182 |
| ACTGTGGA | 0.113 |
| GATCCGCC | -0.047 |
| GAATATCC | 0.0215 |
| GGATATCC | -0.206 |
| AGACGACT | -0.0708 |
| CGGAACTA | -0.0112 |
| CACATTAG | 0.00352 |
| ATTGCTAA | 0.0586 |
| ATTGTTGG | 0.0636 |
| AGTGGGAA | 0.119 |
| CACTCTGA | -0.0127 |
| CAGTTCGA | -0.0672 |
| GAAGAATC | 0.19 |
| CTGTATCA | 0.00368 |
| GGGTATAA | -0.0225 |
| CTGACTAA | 0.0519 |
| CGGTAGCC | 0.296 |
| AACCGTGC | -0.0592 |
| ACATTCTA | -0.0517 |
| CCAATAGA | 0.00833 |
| CGATACCA | 0.168 |
| GAGGCTGC | 0.253 |
| CGAGCCCC | -0.152 |

| Sequence | PBM E-score |
| --- | --- |
| GACTACCA | 0.106 |
| CCGGGTAA | -0.015 |
| AGCTGACT | 0.0156 |
| CTGTAGTA | -0.0217 |
| ACGACTCT | 0.109 |
| CGATCACC | -0.00295 |
| CTGCGAAA | 0.0313 |
| GCAGATAC | 0.0819 |
| CTGATATA | -0.0171 |
| GTTCATCA | 0.108 |
| AGCACTAG | -0.115 |
| GATAGCCC | -0.0221 |
| AACGTGCA | -0.107 |
| CCGGCGTA | -0.139 |
| CCTTCGAG | -0.338 |
| GATTTTTA | -0.00889 |
| CATCTGGA | 0.255 |
| GTACCTAA | 0.0257 |
| AACTCTGG | 0.0872 |
| ACCCGCCC | -0.135 |
| AATAATCC | 0.029 |
| CGTAGCTA | -0.0233 |
| CACATATG | -0.119 |
| ACAATCCT | -0.0527 |
| ATGTGTCA | -0.206 |

| Sequence | PBM E-score |
| --- | --- |
| AACCCTGC | -0.221 |
| GATTTATA | 0.0651 |
| CGGGCTGC | 0.234 |
| CTGGCTAC | 0.119 |
| AGTTTCCA | 0.193 |
| ACGTCTTG | 0.11 |
| TATCCACA | 0.0115 |
| CTATGGAC | 0.0979 |
| ATTGCTGG | 0.0236 |
| GATCTACC | -0.202 |
| CCCCACAG | -0.0776 |
| ACGTCGTG | -0.00249 |
| AGAGGCTA | -0.062 |
| GTAGGCAA | -0.224 |
| AGCAATAG | 0.0355 |
| GTTCCTCA | 0.0956 |
| CGGCTTAA | 0.034 |
| ACCGTGCG | -0.147 |
| AACATACA | -0.0889 |
| CAGTCATG | -0.145 |
| CAATACTA | 0.111 |
| CATTCTAC | -0.217 |
| AAACGTTG | -0.00289 |
| CCCGGGTA | -0.031 |
| GACTCCTA | 0.229 |

| Sequence | PBM E-score |
| --- | --- |
| AGCGTATG | -0.00269 |
| AGCATCGC | 0.0417 |
| AACGACTT | -0.126 |
| CTTAGAAG | 0.143 |
| ATAAGTCG | 0.126 |
| AACCCTCC | -0.205 |
| AGTGGCAA | 0.088 |
| ATTTTTTG | 0.228 |
| GCCCAAAA | 0.217 |
| CTCCACAA | 0.0774 |
| CCGAACGG | -0.208 |
| GGGTAGGA | -0.0932 |
| CTAAAGGA | 0.278 |
| ATTGGTCC | -0.0749 |
| CACCAAGA | 0.22 |
| ATGGCGGA | -0.0187 |
| GCGGATAC | 0.194 |
| ATGTGCGA | -0.0959 |
| CGTGCGCC | -0.107 |
| CACGCTCA | -0.0546 |
| AGGAGACT | -0.00509 |
| AACGTTGG | -0.0681 |
| AGCAAAGA | 0.0102 |
| GGGGGTAC | -0.133 |
| CGACTACA | -0.0338 |

| Sequence | PBM E-score |
| --- | --- |
| AGCTATAG | -0.0832 |
| GAGTACTA | -0.157 |
| GAAATTTC | 0.223 |
| AGGACCGC | -0.088 |
| AACCAAGA | 0.119 |
| AAGGGATA | -0.0519 |
| CGACAACC | 0.087 |
| GCAAGCGA | -0.0442 |
| ATGGACTG | -0.107 |
| CTGAAAGC | -0.2 |
| AATTTCTC | 0.0817 |
| TCCACCAA | 0.109 |
| AAAGAGCT | 0.012 |
| AGTTGAAT | -0.0577 |
| CAGCTCGC | -0.117 |
| GTCGTGGA | -0.217 |
| CCTATATC | 0.111 |
| AATTCCTC | 0.116 |
| ACTTGAGC | -0.227 |
| GATTTTAC | 0.0086 |
| ACATGAGT | 0.0888 |
| CTAATAGA | 0.0482 |
| GCCGCGAA | -0.164 |
| ATATAGTA | 0.0849 |
| CATCCCCC | -0.257 |

| Sequence | PBM E-score |
| --- | --- |
| CGTCCGAC | -0.0429 |
| GACGAAGC | 0.237 |
| GGAACGAC | -0.0685 |
| TCTGCGCA | -0.127 |
| CTCATAAG | 0.0247 |
| AGAGGTAC | -0.0101 |
| CGAAATAG | 0.131 |
| CTCGAAGC | -0.0341 |
| ACAAGACC | -0.0386 |
| AAGTAGAA | 0.0726 |
| ACCAGGAG | 0.0329 |
| AAGCGCGA | -0.0142 |
| GACATAGC | -0.0975 |
| ATCGCACG | -0.145 |
| GAGCGATC | -0.159 |
| TCGGCAAA | 0.0668 |
| CTTCCATC | -0.0566 |
| ATCAGTTG | -0.0954 |
| GATCTTGC | -0.202 |
| CGACCAGA | -0.0313 |
| CCGTGTAC | -0.0544 |
| CAGTACTA | 0.043 |
| ATAACCCC | -0.0804 |
| ACTCTCCC | -0.115 |
| AATAGACT | 0.0888 |

| Sequence | PBM E-score |
| --- | --- |
| ACCAAGGA | 0.091 |
| ATCGGGGC | -0.0113 |
| GGCGAAGA | -0.161 |
| CTGAATAA | 0.0588 |
| TAATTATA | 0.255 |
| AGACGGGG | -0.049 |
| AGCCCCTC | 0.0713 |
| CCCAAAAC | 0.179 |
| CATTATGA | 0.0396 |
| CACTAGTG | 0.173 |
| GTCGTTAA | -0.0319 |
| CAAGGATA | 0.0872 |
| ACCACTTG | 0.241 |
| CACGGTAG | -0.0214 |
| CCCCTACG | -0.119 |
| CCAGCTTC | 0.333 |
| CGCACTAC | -0.0769 |
| AGATTCGG | 0.134 |
| AGCACATC | -0.0359 |
| TGCACTAA | -0.18 |
| CGGGGGAG | -0.203 |
| ATCGCTTA | -0.0792 |
